Assay results taken from PubChem BioAssay AID588591 (National Center for Advancing Translational Sciences (NCATS), 2011).
The campaign covered roughly 390,000 compounds. About 4,700 (1.2%) were called active. The shares of active, inactive and inconclusive entries below differ from those in the screen. Calls come from the whole dose curve; as a rule, active = well fitted inhibition curve with a large enough effect; inconclusive = small, poorly fitted or top-dose-only effect, or another doubt; inactive = no such curve, though single readings can be large or run the other way. Potencies beside an inconclusive call are fits to weak or partial responses and may not hold up.

These compounds were tested against DNA polymerase eta (Homo sapiens) (UniProt Q9Y253) (assay: qHTS for Inhibitors of Polymerase Eta). Settings: recombinant Pol eta, fluorescent DNA replication assay; series mostly up to 114 µM.
Procedure, shortened: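 Pol eta (10 nM) was preincubated with compounds for 15 min at room temperature, after which fluorescent replication substrate (50 nM final) was added to start the reaction. Fluorescence was read kinetically at 0 and 10 min.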
Potency is the fitted concentration of half-maximal effect; tags give direction and shape of the fitted curve.

Chain of UniProt Q9Y253 (Q9Y253 whole entry, looked up): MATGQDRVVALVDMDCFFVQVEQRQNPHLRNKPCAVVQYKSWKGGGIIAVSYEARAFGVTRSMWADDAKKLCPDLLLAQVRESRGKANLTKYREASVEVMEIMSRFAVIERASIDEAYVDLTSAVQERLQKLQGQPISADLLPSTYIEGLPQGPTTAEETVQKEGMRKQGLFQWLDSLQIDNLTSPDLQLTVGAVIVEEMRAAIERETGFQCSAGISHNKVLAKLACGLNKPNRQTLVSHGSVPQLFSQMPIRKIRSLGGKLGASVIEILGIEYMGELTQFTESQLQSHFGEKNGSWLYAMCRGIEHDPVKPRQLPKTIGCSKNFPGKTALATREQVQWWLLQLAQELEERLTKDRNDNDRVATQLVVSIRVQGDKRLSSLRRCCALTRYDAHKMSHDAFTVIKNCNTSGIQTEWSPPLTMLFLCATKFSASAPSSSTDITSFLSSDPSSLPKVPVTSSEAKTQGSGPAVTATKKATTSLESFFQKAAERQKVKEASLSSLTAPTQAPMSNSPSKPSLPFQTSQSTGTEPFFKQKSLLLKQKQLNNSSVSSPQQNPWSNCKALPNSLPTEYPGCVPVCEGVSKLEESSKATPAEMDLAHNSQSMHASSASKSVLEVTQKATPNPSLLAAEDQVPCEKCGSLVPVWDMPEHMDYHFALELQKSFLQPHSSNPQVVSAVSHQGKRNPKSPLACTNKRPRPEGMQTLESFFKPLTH

| SMILES | Potency |
| --- | --- |
| C=C(C)C(=O)Nc1cccc(C2=NOC3(C2)C[C@H](C(N)=O)N(C(=O)CC)C3)c1 (stereo partly specified) | active: 11.2 µM |
| Cc1ccc(-n2nc3c(c2NC(=O)c2c(-c4ccccc4Cl)noc2C)CSC3)cc1 | inactive |
| COc1ccc(C(CNC(=O)c2ccc(OCc3cscn3)cc2)N2CCCC2)cc1 (stereo unspecified) | inconclusive: 112 µM [inhibitor, partial curve, poor fit] |
| COc1ccc(C(=O)N/C(=C\c2ccc3c(c2)OCO3)C(=O)NCCc2nc3ccccc3[nH]2)cc1 | inconclusive: 22.4 µM [inhibitor, partial curve, poor fit] |
| CCN(C(=S)Nc1ccc(OC(F)F)cc1)C1CCCCC1 | inconclusive: 79.4 µM [inhibitor, partial curve, poor fit] |
| COc1ccc(C2=NO[C@@H]3[C@@H]4C[C@@H]([C@H]5C(=O)N(c6ccc7c(c6)OCO7)C(=O)[C@@H]45)[C@H]23)cc1OC | inconclusive: 20 µM [inhibitor, partial curve, poor fit] |
| Cc1cc(S(=O)(=O)Nc2ccc(C(=O)NCCN3CCOCC3)cc2)ccc1F | inactive |
| COc1cccc(NC(=O)CSc2nnc3c(n2)[nH]c2ccc(C)cc23)c1 | inactive |
| CCC(C)(C)c1nnc(NC(=O)C2CC(=O)N(CCc3ccc(F)cc3)C2)s1 (stereo unspecified) | inactive |
| O=C(O)c1c[nH]c2ccc(S(=O)(=O)N3CCN(c4ccc(F)cc4)CC3)cc2c1=O | active: 89.1 µM |
| COC(CNC(=O)C1CCN(S(=O)(=O)c2ccc3nc4c(c(C(=O)O)c3c2)CC(C)CC4)CC1)OC (stereo unspecified) | active: 14.1 µM |
| Cc1cccc(OCC(=O)NNC(=O)c2ccc3nc[nH]c3c2)c1 | inconclusive: 35.5 µM [inhibitor, single point] |
| O=C(CSc1nnc2c(n1)[nH]c1ccccc12)OCc1ccccc1 | inconclusive: 11.2 µM [inhibitor, partial curve, poor fit] |
| COc1cc2c(C(=O)NC3CCCCCC3)cn(C)c(=O)c2cc1OC | inconclusive: 39.8 µM [inhibitor, partial curve, poor fit] |
| CCOC(=O)c1sc2nc3c(SCCC(=O)O)cc(C(=O)c4cc(OC)ccc4O)cn3c(=O)c2c1C | active: 11.2 µM |
| O=C(Nc1ccc(C(=O)O)cc1)/C(=C\c1ccco1)NC(=O)c1ccccc1Cl | inconclusive: 17.8 µM [inhibitor, full curve, poor fit] |
| CCOC(=O)Cc1csc(NC(=O)c2sc3nc4ccc(CC)cc4cc3c2N)n1 | inconclusive: 11.2 µM [inhibitor, full curve, poor fit] |
| Cc1nn(-c2ccccc2)c2c1C(c1ccc(Cl)cc1)N(c1ccccc1)C(=O)N2 (stereo unspecified) | inconclusive: 89.1 µM [inhibitor, partial curve, poor fit] |
| O=c1cc(CSc2nnc(Nc3ccccc3)s2)nc2sccn12 | inconclusive: 17.8 µM [inhibitor, partial curve] |
| Cc1ccc(-c2cc(-c3ccccc3Cl)[nH]n2)c(O)c1 | inconclusive: 89.1 µM [inhibitor, partial curve, poor fit] |
| Cc1cccc(N2CC(C(=O)Nc3nnc(SCC(=O)Nc4nccs4)s3)CC2=O)c1 (stereo unspecified) | inconclusive: 28.2 µM [inhibitor, partial curve, poor fit] |

| SMILES | Potency |
| --- | --- |
| O=c1[nH][nH]c2cc(=O)n(-c3cccc(C(F)(F)F)c3)nc12 | inconclusive: 89.1 µM [inhibitor, partial curve] |
| COc1ccc(-c2nc3nc(C)cc(Nc4cccc(C(F)(F)F)c4)n3n2)cc1 | inconclusive: 89.1 µM [inhibitor, single point] |
| CC(C)COc1ccc(C(=O)Nc2ccccc2[N+](=O)[O-])cc1 | inconclusive: 79.4 µM [inhibitor, partial curve] |
| C=CCn1c2ccccc2c2nnc(SCC(=O)Nc3c(C)n(C)n(-c4ccccc4)c3=O)nc21 | inconclusive: 22.4 µM [inhibitor, partial curve, poor fit] |
| O=C(OC(C(=O)NCc1ccccc1)c1ccccc1)c1ccco1 (stereo unspecified) | inactive |
| CCc1ccc(-c2cc(C(=O)Nc3ccc(S(=O)(=O)NC(C)=O)cc3)c3ccccc3n2)cc1 | inconclusive: 25.1 µM [inhibitor, full curve, poor fit] |
| O=C(COC(=O)C12CC3CC(CC(O)(C3)C1)C2)NC(=O)NCc1ccco1 | inconclusive: 20 µM [inhibitor, single point] |
| Cc1ccc(C)c(NS(=O)(=O)c2ccc3[nH]c(=O)oc3c2)c1 | active: 31.6 µM |
| [O-][n+]1nc2ccccc2c2ccccc21 | inactive |
| COc1ccc(CCn2c(=N)c(C(=O)NCc3ccco3)cc3c(=O)n4ccccc4nc32)cc1OC | active: 44.7 µM |
| O=C(O)C(Cc1c[nH]c2ccccc12)NS(=O)(=O)c1cccc2nsnc12 (stereo unspecified) | inconclusive: 14.1 µM [inhibitor, partial curve, poor fit] |
| Cc1cccc(-c2oc3ccccc3c2C#CCCCCO)c1 | inconclusive: 79.4 µM [inhibitor, partial curve, poor fit] |
| CCOC(=O)N1CCN(C(=O)CCN2C(=O)/C(=C\c3cccc(OC)c3)SC2=S)CC1 | inconclusive: 63.1 µM [inhibitor, partial curve, poor fit] |
| COc1cc(OC)cc(C(=O)OCC(=O)NCc2ccco2)c1 | inconclusive: 50.1 µM [inhibitor, partial curve] |
| COc1ccc(NC(=O)CSc2nnc(-c3ccccc3)n2N)cc1 | inactive |
| CCN(CC)CCCNC(=O)C1CCN(S(C)(=O)=O)CC1 | inactive |
| O=C(CCCCn1c(=O)c2ccccc2n(CC(=O)Nc2ccccc2)c1=O)NCc1ccccc1Cl | inactive |
| COc1ccccc1/C=N\Nc1ccccc1[N+](=O)[O-] | inactive |
| O=c1oc2c(-c3ccc([N+](=O)[O-])cc3)cc(O)cc2s1 | inconclusive: 25.1 µM [inhibitor, full curve] |
| CCCCN(C)C1=CC2=CC(=C(C#N)C#N)CCC2CC1 (stereo unspecified) | inconclusive: 35.5 µM [inhibitor, partial curve, poor fit] |
